Where a name gives a salt, the structure may show the parent alone. ± gives the standard deviation of the averaged measurements. Whole data set: some 2,600 compounds, median “total cell number (DAPI+ nuclei) relative to DMSO vehicle control” near -1.4, cut for the lowest 2% near -23. Some of the results follow.
Each molecule was assayed on jimpy (Plp1 jimpy) mouse iPSC-derived oligodendrocyte progenitor cells (assay: total cell number (DAPI+ nuclei) relative to DMSO vehicle control (SDs above negative control mean); higher = more surviving cells). Details: 10 µM; 3 days.
Experimental: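 Primary phenotypic screen of >3,000 bioactive compounds (Selleck L1700 and Sigma LO1280 libraries) at a single dose of 10 µM. Compounds were added to jimpy (Plp1 mutant) mouse iPSC-derived OPCs at the start of thyroid hormone-induced oligodendrocyte differentiation, one well per compound in 384-well plates. After 3 days cells were stained for MBP, Sox10 and DAPI and imaged with an Operetta system. MBP+ oligodendrocyte number and total cell number were expressed as the number of SDs above the mean of the DMSO negative control on the same plate (n=16 control wells per plate). Hits were defined as >=4 SD for oligodendrocytes and >=2 SD for total cells.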
With CC(C)NC[C@H](O)c1ccc(O)c(O)c1 [R(-)-Isoproterenol (+)-bitartrate] the total cell number was -1.51.
For COC[C@H](NC(=O)c1cnc(C)s1)C(=O)N[C@@H](COC)C(=O)N[C@@H](Cc1ccccc1)C(=O)[C@@]1(C)CO1 [Oprozomib (ONX 0912)], the total cell number was -12.7.
In the case of NCCS(=O)O [Hypotaurine], the total cell number is reported as -1.25.
With N[C@@H](C(=O)N[C@@H]1C(=O)N2C(C(=O)O)=C(Cl)CS[C@H]12)c1ccccc1 [Cefaclor] the total cell number was -0.554.
CCN(c1cc(-c2ccc(CN3CCOCC3)cc2)cc(C(=O)NCc2c(C)cc(C)[nH]c2=O)c1C)C1CCOCC1 showed a total cell number of 2.45.
In the case of Cn1c([N+](=O)[O-])cnc1COC(N)=O [Ronidazole], the total cell number is reported as 1.61.
O=C(O)CC1CC(c2ccccc2)=NO1 (stereo unspecified) showed a total cell number of -1.37.
For CN(C)[C@@H]1C(O)=C(C(N)=O)C(=O)[C@@]2(O)C(O)=C3C(=O)c4c(O)ccc(Cl)c4[C@@H](O)[C@H]3C[C@@H]12 [Demeclocycline hydrochloride], the total cell number was -4.15.
CCOC(=O)c1c(C)n(C)c2ccc(O)cc12 [Mecarbinate] gave a total cell number of -4.47.
Work on COc1ccc(C[C@@H]2c3cc(OC)c(OC)cc3CC[N@+]2(C)CCC(=O)OCCCCCOC(=O)CC[N@@+]2(C)CCc3cc(OC)c(OC)cc3[C@H]2Cc2ccc(OC)c(OC)c2)cc1OC [Cisatracurium Besylate] yielded a total cell number of -3.12.
With Fc1cc(-c2cccc3ncc(-c4cnn(C5CCNCC5)c4)nc23)cc(F)c1CN1CCOCC1 the total cell number was -12.4.
CC(N)C12CC3CC(CC(C3)C1)C2 (stereo unspecified) [Rimantadine] was tested, and the total cell number was -0.509.
For CN(CCOc1ccc(CC2SC(=O)NC2=O)cc1)c1ccccn1 (stereo unspecified) [Rosiglitazone], the total cell number was -0.603.
In the case of OC(CCN1CCCCC1)(c1ccccc1)C1CCCCC1 (stereo unspecified) [Trihexyphenidyl hydrochloride], the total cell number is reported as -2.06.
With N=C(N)N/N=C/c1c(Cl)cccc1Cl [Guanabenz acetate] the total cell number was -1.55.
With N=C(N)N/N=C/c1c(Cl)cccc1Cl [Guanabenz Acetate] the total cell number was -0.8.
Work on Cc1ccc2c(Cl)cc(Cl)c(O)c2n1 [Chlorquinaldol] yielded a total cell number of -12.5.
Work on C[C@H](Oc1cc(-c2cnn(C3CCNCC3)c2)cnc1N)c1c(Cl)ccc(F)c1Cl [(S)-crizotinib] yielded a total cell number of -15.7.
Work on CN(C)CCOC(=O)COc1ccc(Cl)cc1 [Centrophenoxine hydrochloride] yielded a total cell number of -1.85.
For Brc1c(NC2=NCCN2)ccc2nccnc12, the total cell number was -0.106.
Brc1c(NC2=NCCN2)ccc2nccnc12 [Brimonidine Tartrate] showed a total cell number of 1.64.
Work on Nc1cccc2c1CN(C1CCC(=O)NC1=O)C2=O (stereo unspecified) [Lenalidomide (CC-5013)] yielded a total cell number of -3.95.
In the case of NC(=S)N/N=C/c1ncccc1N [Triapine], the total cell number is reported as -11.7.
COc1ccc2[nH]c([S+]([O-])Cc3ncc(C)c(OC)c3C)nc2c1 (stereo unspecified) [Omeprazole] was tested, and the total cell number was 5.38.
Work on O=C(Nc1ccc(-c2ccnc(Nc3ccc(N4CCOCC4)cc3)n2)cc1)C1CCCN1 (stereo unspecified) yielded a total cell number of -12.4.
Molecule CCS(=O)(=O)Nc1ccc2c(c1)/C(=C(/Nc1ccc(CN3CCCCC3)cc1)c1ccccc1)C(=O)N2 [Hesperadin] has a total cell number of -17.7.
With Cc1ccccc1N1C(=O)c2cc(S(N)(=O)=O)c(Cl)cc2NC1C (stereo unspecified) [Metolazone] the total cell number was -1.3 ± 1.5.
Molecule CN(C)CCC(c1ccc(Br)cc1)c1ccccn1 (racemic) [(±)-Brompheniramine maleate] has a total cell number of -1.71.
Molecule Cc1cc(-n2c(=O)[nH]c(=O)n(C)c2=O)ccc1Oc1ccc(SC(F)(F)F)cc1 [Toltrazuril] has a total cell number of 0.165.
For CCCn1c(=O)c2[nH]c(-c3ccc(S(=O)(=O)O)cc3)nc2n(CCC)c1=O [1,3-Dipropyl-8-p-sulfophenylxanthine], the total cell number was -1.78.
[I-].[K+] [Potassium Iodide] gave a total cell number of -1.15.
O=C1N(c2ccccc2)c2ccccc2C1(Cc1ccncc1)Cc1ccncc1 [Linopirdine] was tested, and the total cell number was -0.877.
O=C(NS(=O)(=O)c1ccc(Br)s1)c1ccc(Cl)cc1Cl [Tasisulam] was tested, and the total cell number was -1.99.
OCCOCCN1CCN(C(c2ccccc2)c2ccc(Cl)cc2)CC1 (stereo unspecified) [Hydroxyzine 2HCl] showed a total cell number of 1.55.
COc1ccc(CNC(=O)Nc2ncc([N+](=O)[O-])s2)cc1 showed a total cell number of 1.19.
Cc1nc(N)sc1-c1ccnc(Nc2ccc(N3CCOCC3)cc2)n1 showed a total cell number of -22.6.
For C[C@]12CC[C@@H]3c4ccc(O)cc4CC[C@H]3[C@@H]1C[C@@H](O)[C@@H]2O [Estriol], the total cell number was -1.95.
For C[C@@H]1CN(CC(=O)Nc2ccc3c(c2)Cc2cccc(-c4cc(=O)cc(N5CCOCC5)o4)c2S3)C[C@H](C)O1, the total cell number was -10.9.
In the case of CCc1cccc2c3c([nH]c12)C(CC)(CC(=O)O)OCC3 (stereo unspecified) [Etodolac], the total cell number is reported as -0.872 ± 0.45.
O=CN(O)CCCP(=O)(O)O [Fosmidomycin sodium salt hydrate] gave a total cell number of -1.12.
For Cc1noc(NS(=O)(=O)c2ccc(N)cc2)c1C [Sulfisoxazole], the total cell number was -1.12.
Molecule CCC[C@H](NC(=O)[C@@H]1[C@H]2CCC[C@H]2CN1C(=O)[C@@H](NC(=O)[C@@H](NC(=O)c1cnccn1)C1CCCCC1)C(C)(C)C)C(=O)C(=O)NC1CC1 [Telaprevir (VX-950)] has a total cell number of -2.19.
Work on C=CC(=O)N1CCC[C@@H](n2nc(-c3ccc(Oc4ccccc4)cc3)c3c(N)ncnc32)C1 yielded a total cell number of -8.95.
CC(=O)N1CCN(CCOc2ccc(C3CCN(C4=Nn5c(nnc5C(F)(F)F)CC4)CC3)cc2)CC1 gave a total cell number of 0.0683.
CC1=C(CC(=O)O)c2cc(F)ccc2/C1=C\c1ccc([S+](C)[O-])cc1 (stereo unspecified) [Sulindac] was tested, and the total cell number was -1.2 ± 0.33.
C=CC(=O)Nc1ccc2ncnc(Nc3ccc(OCc4cccc(F)c4)c(Cl)c3)c2c1 was tested, and the total cell number was -12.9.
For NOCC(=O)O [O-(Carboxymethyl)hydroxylamine hemihydrochloride], the total cell number was 1.52.
With CCOC(=O)[C@H](CCc1ccccc1)N[C@@H](C)C(=O)N1CCC[C@H]1C(=O)O [Enalapril Maleate] the total cell number was -1.54.
Work on NC[C@@H]1O[C@H](c2ccccc2)Cc2c1ccc(O)c2O yielded a total cell number of -2.54.
In the case of CNC(=O)[C@H](Cc1ccccc1)NC(=O)[C@H](CC(C)C)[C@H](CSc1cccs1)C(=O)NO [Batimastat (BB-94)], the total cell number is reported as -10.5.
With CNC(=O)Nc1ccc(-c2nc(N3CC4CCC(C3)O4)c3cnn(C4CCC5(CC4)OCCO5)c3n2)cc1 the total cell number was -8.93.

Reference: the supplement of paper PMC6135742
